The record followed here is article PMC12136788.

First the molecules themselves.
T1: UNK ZnF1-6 (called full-length) (human, UniProt Q9C0B0 30-357)
T1 sequence: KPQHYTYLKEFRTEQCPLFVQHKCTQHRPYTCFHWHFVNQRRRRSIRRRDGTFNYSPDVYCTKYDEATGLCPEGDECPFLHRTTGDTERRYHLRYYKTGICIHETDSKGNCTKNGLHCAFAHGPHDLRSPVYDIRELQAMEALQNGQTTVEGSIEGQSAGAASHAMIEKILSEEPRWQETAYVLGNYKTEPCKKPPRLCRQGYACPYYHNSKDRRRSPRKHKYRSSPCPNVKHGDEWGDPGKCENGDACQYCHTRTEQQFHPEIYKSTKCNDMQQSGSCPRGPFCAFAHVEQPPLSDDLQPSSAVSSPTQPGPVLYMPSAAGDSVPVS

B1: ENSG00000100350:stop:overlap|stop_codon|ENSG00000100350|stop_codon|NA|stop_codon (ssRNA)
RNA: GGGAGUUCUACAGUCCGACGAUCGGCGACCAAGAGCCACUAGGUUCCCCCCUGGCUCCAGGGCCUCUGGCUCAGUCCGUCGAUAGCAACAAAGAGGAGCUCUGACUGUCCCUUCCUAAGCUGUGGGCACAGUGGCCAGGCCUCCAACAGAGGAUUGAGCAUCA
B2: chr2:200815332:200815484:+|CDS|ENSG00000082153|unk|total|mutant (ssRNA)
RNA: GGGAGUUCUACAGUCCGACGAUCUCAGUUUCAAGACUGUAUUAUUCAAGGCUUAACUGAAACCGGUACUGAUUUGGAAGCAGCCGCUAAGUUUCUUGAUGCUUCUGGAGCAAAACUUGAUUACCGUCGAUAUGCAGAAACACUCAACAGAGGAUUGAGCAUCA
B3: chr1:45660322:45660423:-|5pUTR|ENSG00000159592|unk|total|mutant (ssRNA)
RNA: GGGAGUUCUACAGUCCGACGAUCUCCCCUUCCCCCCUUCCCCUUUUCCCCUUUCCCCUUUUGGAAACGUGUCAGGAACCAAACCGUUUAAGAUGAGCAGUUGAGGGGACUGAGAGAGUGAUCGACACAGAACCUGGCUUCUUCCAACAGAGGAUUGAGCAUCA
B4: chr3:149369464:149369565:-|3pUTR|ENSG00000169908|msi1_unk|total|mutant (ssRNA)
RNA: GGGAGUUCUACAGUCCGACGAUCAAAUAACAUUCCAAUCACUAUUGUAUAUAUGUGCAUGUAUUUUUUAAAUUAAAGAUGUCCCGUUGCUUUUUAUAAGACCAAGAAGGAGAAAAUCCGACAACCUGGAAAGAUUUUUGUUUUCAACAGAGGAUUGAGCAUCA
B5: chr1:92387783:92387894:+|3pUTR|ENSG00000122484|unk|FALSE|unique (ssRNA)
RNA: GGGAGUUCUACAGUCCGACGAUCGGGAGCUUAGUGGGCAAGGAGGUAGGGAUAUAAUUUCUCUUCUUGGCUCCACCAGUAAUUAGCUCUGUGGCCCAGUCACCUAAACUUUCUGGACUUCAGUUCAGGUUGUAUGGCAGUAGGCAACAGAGGAUUGAGCAUCA
B6: chr11:61866962:61867357:+|3pUTR|ENSG00000134824|msi1|FALSE|unique (ssRNA)
RNA: GGGAGUUCUACAGUCCGACGAUCAGAUUCAGGGGAAGGGCAGGCACCAACAACUCAGAAUGGGGGCUUUCGGGGAGGGCGCCUAGUCCCCCCAGCUCUAAGCAGCCAGGAGGGACCUGCAUCUAAGCAUCUGGGUUGCCAUGGCAACAGAGGAUUGAGCAUCA
B7: ENSG00000136451:be:win_3551|3pUTR|ENSG00000136451|bound_else_gene|NA|bound_elsewhere_windowed (ssRNA)
RNA: GGGAGUUCUACAGUCCGACGAUCACUACUGGAAGGACUCGUGUAGGGAAAGCCCAAGAAUGACCUUGCUGAGGCCUGGAUUGGGAGGCACAGUGGCCACAUUUGGAGGAAGUUCACAUUUCCUGGCAUGCAGACCCAAAACUGCAACAGAGGAUUGAGCAUCA
B8: chr2:223959526:223959698:+|CDS|ENSG00000135900|unk|FALSE|unique (ssRNA)
RNA: GGGAGUUCUACAGUCCGACGAUCCUGGGAUUACCAUGCAGAAAUACAAGCUUUUGGACAUCGGUUACAGGAAAACUUUUCCUUAGAUCUUCUCAAAACUGCAUUUGUUAAUAGCUGCUAUAUUAAAAGUGAGGAGGCCAAACGCAACAGAGGAUUGAGCAUCA
B9: ENSG00000126261:stop:overlap|stop_codon|ENSG00000126261|stop_codon|NA|stop_codon (ssRNA)
RNA: GGGAGUUCUACAGUCCGACGAUCAUCUCGUGCUCACCGGUUUCUCCCACAUCGACCUGCCACCAGGGUCUCACUAUUUUGCUUAGGCUGGUCUUGAAGGUCUGGGCUCAAGCGAUUCUCUCACUUUGUCCUCCCAAAGUGUUGCAACAGAGGAUUGAGCAUCA
B10: ENSG00000136451:be:win_1201|CDS|ENSG00000136451|bound_else_gene|NA|bound_elsewhere_windowed (ssRNA)
RNA: GGGAGUUCUACAGUCCGACGAUCUUCAGUAUAACAUCCUCUGUGUCGUCUGGGACUAUGUCAAACCCAGUCACAGUGGCAGCUGCAAUGAGCAUGAGAAGUCCAGUAAAUGUUUCAAGUGCAGUUAACAUAACCAGCCCAAUGCAACAGAGGAUUGAGCAUCA
B11: chr5:150709129:150709230:-|3pUTR|ENSG00000132912|msi1|total|mutant (ssRNA)
RNA: GGGAGUUCUACAGUCCGACGAUCCACAAAACACUUUGAUCAUAAACUUUUUUCUUCAGAAGCCAAACUAACUUGCAGAAUAACCGAGCCACUGGUUUAAUGUUUCCUCAAGACCGGUUUCCGUGUAAGCCCGUAUUCUGUGUGCAACAGAGGAUUGAGCAUCA
B12: ENSG00000107863:be:win_3051|CDS|ENSG00000107863|bound_else_gene|NA|bound_elsewhere_windowed (ssRNA)
RNA: GGGAGUUCUACAGUCCGACGAUCAUGCCUGUUUCAGGCUGAAGACAGAGAUGAUAUGCUAGCUUGGAUCAAGACGAUCCAGGAGAGCAGCAACCUAAACGAAGAGGACACUGGAGUCACUAACAGGGAUCUAAUUAGUCGAAGCAACAGAGGAUUGAGCAUCA
B13: chr10:117282838:117282939:-|3pUTR|ENSG00000165650|unk|total|mutant (ssRNA)
RNA: GGGAGUUCUACAGUCCGACGAUCCCCCUUGUGUUAUUUUUCUUCCUCUUGGUUUUUGAAUCCGUGUUAAACCGAAUACUGUCCCGAUUCUUAAAAUAUUUUCAUUUCCAUCAUGGUUAUAACAAAUUUGCUGCAUGCCCAAACCAACAGAGGAUUGAGCAUCA
B14: ENSG00000107863:be:win_1|CDS|ENSG00000107863|bound_else_gene|NA|bound_elsewhere_windowed (ssRNA)
RNA: GGGAGUUCUACAGUCCGACGAUCAUGAUGGCCACGCGUCGGACUGGUCUGUCUGAGGGAGAUGGUGACAAGCUCAAGGCCUGCGAGGUCUCAAAAAAUAAAGAUGGAAAAGAACAAAGUGAAACUGUAUCACUGUCUGAAGAUCAACAGAGGAUUGAGCAUCA

Some of the results follow.

The assay has as its target T1, UNK ZnF1-6 (called full-length). The assay is described as follows: nsRBNS (natural sequence RNA bind-n-seq); RBNS binding buffer (assumed for nsRBNS): 25 mM Tris pH 7.5, 150 mM KCl, 3 mM MgCl2, 0.01% Triton X-100, 500 ug/ml BSA, 20 U/ml SUPERase-In, 4 C; UNK is unkempt and MSI1 is Musashi-1; names of the RNAs are library labels; protein concentration not given here; high values mean tight binding.
Molecule B1 displayed a binding signal of 0.741 enrichment R. The value for B2 was 0.255 enrichment R; that for B3 was 0.581 enrichment R; that for B4 was 0.91 enrichment R. Molecule B5 gave a binding signal of 0.832 enrichment R. To B6 belongs 0.948 enrichment R. B7 came in with a binding signal of 0.956 enrichment R. In turn, B8 came in with a binding signal of 0.468 enrichment R. In turn, B9 showed a binding signal of 0.365 enrichment R.

For the molecule B10, the binding signal was 0.462 enrichment R. Consider B11, for which the binding signal worked out at 0.324 enrichment R.

In the case of B12, the binding signal amounted to 0.635 enrichment R. For the molecule B13, the binding signal was determined as 0.711 enrichment R. The value for B14 was 0.711 enrichment R.
